From paper PMC4336329 (PLoS ONE, 2015)
Hit rate of the full screen: of about 310,000 compounds, about 2,200 (0.71%) showed an effect of 50% or more. The effect is printed as a negative number. The list shows a part of the results.

Biological target: human ether-à-go-go-related gene (hERG) potassium channel (human, UniProt Q12809)
Assay: primary screen, population patch clamp on CHO cells stably expressing hERG

Chain of human ether-à-go-go-related gene (hERG) potassium channel (Q12809 whole entry, looked up): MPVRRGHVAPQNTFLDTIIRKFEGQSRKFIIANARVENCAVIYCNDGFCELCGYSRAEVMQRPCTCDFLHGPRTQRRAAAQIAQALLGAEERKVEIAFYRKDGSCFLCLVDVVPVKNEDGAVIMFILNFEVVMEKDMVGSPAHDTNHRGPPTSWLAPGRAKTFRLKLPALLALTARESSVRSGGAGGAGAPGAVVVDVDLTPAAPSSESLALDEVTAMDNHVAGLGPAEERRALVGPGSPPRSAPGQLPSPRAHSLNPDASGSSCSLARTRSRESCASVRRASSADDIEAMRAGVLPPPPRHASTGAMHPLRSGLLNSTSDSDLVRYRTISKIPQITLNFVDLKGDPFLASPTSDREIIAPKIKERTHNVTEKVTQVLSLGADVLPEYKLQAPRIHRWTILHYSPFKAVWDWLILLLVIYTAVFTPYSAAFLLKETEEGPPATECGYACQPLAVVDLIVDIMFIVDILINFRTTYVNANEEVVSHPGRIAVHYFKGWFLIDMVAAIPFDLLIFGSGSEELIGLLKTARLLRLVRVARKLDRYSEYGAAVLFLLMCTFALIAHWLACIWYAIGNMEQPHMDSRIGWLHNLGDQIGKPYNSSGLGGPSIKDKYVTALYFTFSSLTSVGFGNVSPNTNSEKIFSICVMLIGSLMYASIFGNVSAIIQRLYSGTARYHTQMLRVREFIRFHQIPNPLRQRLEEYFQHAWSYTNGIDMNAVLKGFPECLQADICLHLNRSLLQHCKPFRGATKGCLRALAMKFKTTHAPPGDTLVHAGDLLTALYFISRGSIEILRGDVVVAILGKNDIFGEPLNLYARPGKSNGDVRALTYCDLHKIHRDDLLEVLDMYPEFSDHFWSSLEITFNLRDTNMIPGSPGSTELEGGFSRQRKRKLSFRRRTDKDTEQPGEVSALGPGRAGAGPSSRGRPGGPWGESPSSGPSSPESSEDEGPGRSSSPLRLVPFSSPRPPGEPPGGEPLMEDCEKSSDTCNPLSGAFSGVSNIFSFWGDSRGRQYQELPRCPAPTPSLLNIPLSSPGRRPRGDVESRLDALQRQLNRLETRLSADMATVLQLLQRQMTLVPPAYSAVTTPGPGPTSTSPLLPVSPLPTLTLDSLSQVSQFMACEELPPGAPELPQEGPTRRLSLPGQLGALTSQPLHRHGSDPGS

| Structure (SMILES) | hERG current change (%, negative = inhibition) at 1uM [%] |
| --- | --- |
| COc1ccccc1/C=C/c1nc(C#N)c(N(C)C)o1 | 12.8 |
| CN(/N=C/c1cc(Cl)cc(Cl)c1O)c1c(Cl)cccc1[N+](=O)[O-] | 8.51 |
| Cc1noc(COc2ccccc2OCC(O)CNC(C)(C)C)n1.Cl (stereo not drawn) | 14.7 |
| Cc1ccc(NS(=O)(=O)c2cccc(C(=O)NCCCN3CCOCC3)c2)cc1 | -5.41 |
| COc1ccc(S(=O)(=O)N2CCCCC2)cc1 | 3.95 |
| Cc1ccc(C(=O)OCC(=O)NCCc2ccccc2)cc1C | 9.53 |
| CC12CCCCC1N(O)CN2O (stereo not drawn) | 4.92 |
| N/C(=N\S(=O)(=O)c1cccs1)c1ccccc1 | 12.9 |
| COc1ccc(-c2[nH]ncc2-c2cnc(C)s2)c(O)c1 | 17 |
| CC(=O)Nc1ccc2oc(-c3cc(F)c(F)cc3Cl)nc2c1 | 5.97 |
| Cc1cc(C(=O)NCC(C)(C)N2CCOCC2)c(C)o1 | 18 |
| Cc1ccc(C(=O)NCC(=O)OCc2csc(-c3ccccc3)n2)cc1 | 8.35 |
| CC1C/C(=C\c2ccccc2[N+](=O)[O-])c2nc3ccccc3c(C(=O)O)c2C1 (stereo not drawn) | 17.9 |
| Cc1cc(-n2c(=O)c(C#N)cc3c(=O)n4cccc(C)c4nc32)no1 | -46.8 |
| CC1CC(C)CN(C(=O)CN2C(=O)NC(C)(C)C2=O)C1 (stereo not drawn) | 9.98 |
| O=C(CSc1nc2ccccc2[nH]1)Nc1c(F)c(F)c(F)c(F)c1F | 16.7 |
| Cc1[nH][nH]c(=O)c1C | 5.12 |
| COC(=O)N(NC(=O)C(O)(c1ccccc1)c1ccccc1)c1ccc(C)cc1 | 7.79 |
| COc1ccc2[nH]c(C)cc(=O)c2c1 | 16.9 |
| CCn1c(C)nc2cc(C(=O)OC)ccc21 | 14.9 |
| Clc1ccc(Cl)c(OCCCCN2CCNCC2)c1.O=C(O)C(=O)O | 7.87 |
| CCN(CC)CCN1C(=O)C(=O)/C(=C(/O)c2ccc(OC)cc2)C1c1ccco1 (stereo not drawn) | 10.6 |
| Cc1ccc(-n2c(-c3ccncc3)n[nH]c2=S)cc1C | 5.81 |
| CC(C)CN(C(=O)CCC(=O)OCC(=O)N(C)c1ccccc1)c1c(N)n(CC(C)C)c(=O)[nH]c1=O | 11.2 |

| Structure (SMILES) | hERG current change (%, negative = inhibition) at 1uM [%] |
| --- | --- |
| CC(=O)Nc1cc[n+](C(C)C(=O)c2ccc(Br)cc2)cc1.[Cl-] (stereo not drawn) | 7.17 |
| NC(=O)C1CCN(c2nc3c(S(=O)(=O)c4ccccc4)nnn3c3ccccc23)CC1 | 12.8 |
| CC(C)c1ccc(C2C(C#N)=C(N)Oc3c2oc(CO)cc3=O)cc1 (stereo not drawn) | 4.15 |
| CCCc1nc2ccccc2c(C(=O)OC(C)C(=O)NCc2ccc3c(c2)OCO3)c1CC (stereo not drawn) | 6.36 |
| COc1ccc(C)cc1NC(=O)N1CCC2(CC1)OCCO2 | 9.97 |
| O=[N+]([O-])c1cc(Cl)ccc1N1CCN(c2cccc(C(F)(F)F)c2)CC1 | 14.5 |
| Fc1ccc(-n2c(Cn3nnc4ccccc43)n[nH]c2=S)cc1 | 33.3 |
| Cn1c(=O)oc2cc(S(=O)(=O)NCCC(=O)N3CC=C(c4ccccc4)CC3)ccc21 | 0.471 |
| COc1cc(CNc2cccc(F)c2)cc(Br)c1O | 1.47 |
| COc1ccc(C2(C)NC(=O)N(CC(=O)Nc3ccc(Br)cc3F)C2=O)cc1OC (stereo not drawn) | 13.3 |
| CCCCn1c(N)c(N(CCC(C)C)C(=O)c2cccc(-n3cnnn3)c2)c(=O)[nH]c1=O | 7.47 |
| CCOc1ccc(C(=O)OCc2nnc(-c3cccs3)o2)cc1OC | -10.3 |
| CCOc1ccc(S(=O)(=O)NC(C)C(=O)NC2CCCC2)cc1 (stereo not drawn) | 14.7 |
| CS(=O)(=O)c1ccc(NC(=O)CCN2C(=O)C3CC=CCC3C2=O)cc1 (stereo not drawn) | 3.08 |
| Cc1ccc(C)c(C(=O)OCC(=O)Nc2cccc(S(=O)(=O)N3CCCCC3)c2)c1 | 1.96 |
| COc1ccc(NC(=O)c2cccc(S(=O)(=O)N3CCc4ccccc43)c2)cn1 | 13.2 |
| O=C(O)c1cccnc1Cl | 14.5 |
| CS(=O)(=NS(=O)(=O)c1ccc(Cl)cc1)c1ccccc1 (stereo not drawn) | 10.2 |
| COc1ccccc1Sc1ccccc1/C=N/NC(N)=O | 15.9 |
| COc1ccc(C(=S)N2CCN(C)CC2)cc1Br | 1.54 |
| O=C(CSCCO)Nc1ccccc1 | 12.7 |
| Cc1cccc(C)c1N1CCc2cn[nH]c21 | 10.7 |
| Cc1ccnc(SCC(=O)c2ccc(Br)s2)n1 | 10.3 |
| O=c1cc(-c2ccncc2)oc2ccccc12 | 10.8 |

| Structure (SMILES) | hERG current change (%, negative = inhibition) at 1uM [%] |
| --- | --- |
| COC(=O)c1cc(NC(=O)C2(S(=O)(=O)c3ccc(C)cc3)CC2)cc(C(=O)OC)c1 | 0.157 |
| O=C(CSc1n[nH]c(-c2ccco2)n1)Nc1ccc(F)cc1 | 14.8 |
| COCc1c(C(=O)N/N=C(\C)c2ccc(Cl)s2)nnn1-c1nonc1N | 14 |
| CC1CCCCC1NC(=O)CCCn1c(=S)[nH]c2ccccc2c1=O (stereo not drawn) | 8.65 |
| O=C(Nc1cccnc1Cl)c1cc2c(s1)-c1ccccc1OC2 | 3.37 |
| CCOC(=O)c1cc(-c2ccc(C)o2)nn1CCC#N | 17 |
| Cc1nc2ccc([N+](=O)[O-])cc2c(=O)n1Cc1ccccc1Br | 4.69 |
| O=C(c1ccc2ccccc2n1)N1CCN(c2ccccn2)CC1 | 6.79 |
| Oc1ccc2cccnc2c1 | -0.778 |
| CCCC(c1nnnn1CS(=O)(=O)c1ccc(C)cc1)N1CCN(CC)CC1.Cl (stereo not drawn) | 6.04 |
| COc1ccc2[nH]c(C)c(CCNC(=S)Nc3cc(C)cc(C)c3)c2c1 | 18.3 |
| CC1(C)Cc2c(sc3nc(-c4cccs4)n(N)c(=O)c23)CO1 | -2.65 |
| CC1=C2[C@@H]3OC(=O)[C@H](C)C3CC[C@@]2(C)C=CC1=O (stereo partly drawn) | 18.1 |
| COc1cccc(N2C(=O)N(c3ccccc3Cl)C3CS(=O)(=O)CC32)c1 (stereo not drawn) | 4.36 |
| Cc1cc2nc(-c3ccc[nH]c3=O)n(Cc3ccc(F)cc3)c2cc1C | 8.99 |
| CC(C)(C)Cc1nnc(NS(C)(=O)=O)s1 | 1.35 |
| CCOC(=O)c1ccc(NC(=O)C2CC(=O)Nc3nc4ccccc4n32)cc1 (stereo not drawn) | 3.77 |
| CSc1nc(-c2ccco2)nn1S(=O)(=O)c1ccc(C)cc1 | 3.34 |
| COC(=O)CCC(=O)OC1(C)C(=O)C=C2C=C(C3CC3)N(C3CCCCC3)C=C2C1=O (stereo not drawn) | 7.93 |
| CCOC(=O)CC(=O)NC(CC(=O)OC)c1ccc(Br)cc1 (stereo not drawn) | 10.2 |
| Cc1cc(C)c2c(n1)sc1c(N3CCCCC3)ncnc12 | 12.9 |
| CC(C)CCn1c(SCC(=O)Nc2ccccc2C(F)(F)F)nc2nccnc2c1=O | -1.4 |
| C=C1C(=O)O[C@@H]2C[C@@H](C)[C@@H]3C=CC(=O)[C@@]3(C)[C@@H](OC(C)=O)[C@H]12 | 8.9 |
| COc1ccc(OC(=O)Nc2ccccc2)cc1 | 8.17 |

| Structure (SMILES) | hERG current change (%, negative = inhibition) at 1uM [%] |
| --- | --- |
| COC(=O)CN(c1ccccc1C)S(C)(=O)=O | 20.6 |
| COC(=O)N1CCN(c2ccc(Cl)c(Cl)c2)CC1 | 12.8 |
| Cc1cc(NS(=O)(=O)c2ccc(NC(=O)COc3cc(C)c(Cl)c(C)c3)cc2)no1 | 10.7 |
| O=C(CCC(=O)N1CCOc2ccc(Cl)cc21)NCCN1CCOCC1 | 14.2 |
| COCCNC(=O)c1ccc2ccccc2n1 | 7.91 |
| COCCN1C(=O)C(=O)/C(=C(/O)c2ccc(S(=O)(=O)N3CCOCC3)cc2)C1c1cccc(OC)c1 (stereo not drawn) | 12.9 |
| Cc1nn(S(=O)(=O)c2ccc(F)cc2)c(C)c1S(=O)(=O)N1CCCCC1 | 11.8 |
| Cc1onc(-c2ccccc2)c1C(=O)Nc1nnc(N(C)Cc2ccccc2)s1 | 4.13 |
| CC1CCCN(C(=O)c2ccc3c(c2)OCCO3)C1 (stereo not drawn) | 16.3 |
| COc1ccccc1Nc1nc(-c2cccnc2)cs1 | 0.499 |
| COc1ccc(OC)c(-n2c(=O)c3ccccc3c3ccccc3c2=O)c1 | 11.9 |
| COc1ccc(CNC(=O)c2ccc(N3CCCC3=O)cc2)cc1 | 0.232 |
| CCCCN(C(=O)c1cccc(S(=O)(=O)N2CC(C)OC(C)C2)c1)c1c(N)n(CCCC)c(=O)[nH]c1=O (stereo not drawn) | 9.63 |
| CC(=O)Nc1ccc2c(c1)nc(C)n2-c1ccccc1 | 14.5 |
| Cc1ccc(C(=O)NN2CCOCC2)cc1 | 3.45 |
| C=C(C(=O)O)C1CCC2(C)CCCC(C)(O)C2C1 (stereo not drawn) | 9.95 |
| Cc1ccnc(NS(=O)(=O)c2ccc(NS(C)(=O)=O)cc2)n1 | 13.5 |
| O=C(c1ccc(COc2ccccc2[N+](=O)[O-])o1)N1CCCCCC1 | 8.59 |
| CCO[C@@H]1OC(C(=O)O)=C[C@H](c2coc3ccccc3c2=O)[C@H]1CCCO | 20.9 |
| CCNS(=O)(=O)c1ccc(OC)c(C)c1 | 17.5 |
| CCOC(=O)C1=C(c2ccccc2)OC(N)=C(C#N)C1C1CCCCC1 (stereo not drawn) | 6.49 |
